# Laboratory results reported in ChEMBL document CHEMBL5308541, “MAIP: An Open-Source Tool to Enrich High-Throughput Screening Output and Identify Novel, Druglike Molecules with Antimalarial Activity” (ACS Med Chem Lett, 2023).
# In all, about 150,000 compounds went through this assay and about 540 (0.36%) showed an effect of 50% or more. The list shows a part of the results.
# Tested on: Plasmodium falciparum
# Experiment: Primary screen in NF54 nanoGlo assay, in single point, at 2uM, 72h; a lower Z score goes with more inhibition
# Type: functional, Erythrocyte
# Details: timepoint 72 hour
Structure (SMILES),% Inhibition,Z score
Cc1nc(N2CCN(C(=O)[C@@H]3CCCN3C(=O)OC(C)(C)C)CC2)cc(C(F)(F)F)n1,-11%,1.88
O=C(CN1CCCCCC1)N1CCC[C@H](OCc2noc(-c3ccncc3)n2)C1,-7%,1.29
CCCOCC(=O)Nc1c(OC)ccnc1OC,-18%,3.11
Cc1ccnc(NCCCNc2cccnc2)n1,-4%,0.78
c1ccc(-c2ccc(CN3CCCC3)cc2)c(CN2CCOCC2)c1,-9%,2.01
COc1ccc2cc(NC(=O)c3cc(-c4c(C)nn(C)c4C)[nH]n3)cnc2c1,41%,-7.15
CN(C)CCCOC1CCN(C(=O)c2cnc3[nH]ccc3c2)CC1,0%,0.02
CCCc1cc(N2CCC(NCCCn3ccnc3)CC2)nc(C)n1,-6%,1.15
CCN(CC)CCOc1ccccc1-c1[nH]c2ccccc2c1Cc1ccccc1,2%,-0.39
CCOc1ccccc1Nc1cc(C(=O)OC)nc2c(OC)cccc12,2%,-0.33
COc1cccc(N[C@@H](CNc2nn3c(=O)ccnc3s2)C(C)(C)C)c1,-8%,1.42
Cc1ncsc1C(=O)N1CC(C(=O)O)CC(c2cnn(C)c2)C1 (stereo not drawn),1%,-0.23
CC(C)C[C@H](NC(=O)Nc1ccc2scnc2c1)c1ncnn1C,-3%,0.59
CN1CCc2cc(CNC3CCN(c4ccc(C(=O)N5CCC[C@H](CO)C5)cc4)CC3)ccc21,-15%,2.63
Cc1csc2nc(=O)c(-c3ccccc3NC(=O)c3ccc4cc[nH]c4c3)nn12,2%,-0.27
COCCN1CC[C@H](Nc2cc(C(F)(F)F)nc(-c3cccnc3)n2)C1,-3%,0.52
C[C@@H](CCNc1cnccn1)N1CCN(C)CC1,-4%,0.77
CC(C)(C)C(=O)N1CCOc2ccc(Nc3nc4ccccc4s3)cc21,-1%,0.26
OC1CCC(CNc2ccc3nnc(-c4ccsc4)n3n2)C1 (stereo not drawn),-11%,1.91
Cc1cccc(N2CCC(NCC[C@H]3CCCCN3S(C)(=O)=O)CC2)c1C,-3%,0.72
Cc1nnc(-c2cccc(-c3ccc(C(=O)N4CCNCC4)cc3)c2)s1,-7%,1.41

Structure (SMILES),% Inhibition,Z score
COc1cccc2c1CCN(C[C@@H](O)Cc1ccccc1)CC2,6%,-1.23
CCS(=O)(=O)c1ccccc1NCc1cn(C)nc1C(F)(F)F,-16%,2.76
CN1CCN(CCCN(C)c2cnc3ccccc3n2)CC1,2%,-0.33
OC[C@H]1CCCN(CCNc2ncnc3[nH]ccc23)C1,0%,0.07
Cc1cc(N2CCC(N(C)Cc3ccc4nsnc4c3)CC2)nc(N)n1,18%,-3.91
c1cc(-c2cc(C3CCN(C[C@H]4COCCO4)CC3)n[nH]2)ccn1,-1%,0.18
COc1ccc(NC2(C(=O)N3CCC([C@H](C)N4CCN(C)CC4)CC3)CCCCC2)cc1,-9%,1.59
O[C@@H](CNc1nc(-c2ccncc2)nc2ccccc12)COc1cccc(Cl)c1Cl,0%,0.01
CCc1ccc2nc(C)cc(C(=O)N(C)Cc3noc(C4CCC4)n3)c2c1,1%,-0.24
CN1CCC(N2CCC(NC(=O)c3ccncn3)CC2)CC1,-17%,2.56
Cc1cc(N2CC[C@H](NC(=O)c3cccnc3N(C)C)C2=O)n(C)n1,-7%,1.44
CC(C)Nc1ncc(C(=O)NCCN2CCC(c3ccccc3)CC2)cn1,2%,-0.3
CC(C)N1CC[C@H](Nc2ncnc3[nH]ncc23)C1,-5%,0.99
Cc1cc(NC2CCCCC2)c2cc(Cl)ccc2n1,19%,-3.83
Cn1cc(-c2nc([C@@H]3CCCCCN3C(=O)c3cc(F)cc4[nH]cnc34)no2)cn1,-4%,0.79
CCc1ccc(CS(=O)(=O)N2CCCc3occc3C2)cc1,-11%,1.72
COc1ccc(-c2noc(CCc3nnc4ccc(N5CCN(C6CCCCC6)CC5)nn34)n2)cc1,-3%,0.44
CC(C)(C)[C@H](Cn1ccnc1)NC(=O)c1ccc(F)c2cccnc12,0%,0.07
O=C(c1ccnc2[nH]nnc12)N1CCC[C@H](Nc2ccccc2)C1,3%,-0.67
CCN1CCN([C@@H](C)CNc2ncnc3sccc23)CC1,-8%,1.53
COc1cc(=O)n2c(c1C(=O)N1CCCC1)CCN(Cc1cccc3ncccc13)CC2,-3%,0.57

Structure (SMILES),% Inhibition,Z score
OC1CCC(Nc2cnc3cc(F)c(F)cc3n2)CC1O (stereo not drawn),-4%,0.89
CCNc1cc(C)nc(NCCNC(=O)c2cc(-n3cccn3)nc(C)n2)n1,-1%,0.15
O=C([C@@H]1CC2(CCNCC2)CN1)N(Cc1cccnc1)C1CCNCC1,2%,-0.26
CCc1cc(NC(=O)N[C@H](c2nccn2C)C(F)(F)F)no1,-5%,0.83
CC(C)N1CC[C@H](N2CCC(Oc3ncc(F)cn3)CC2)C1=O,5%,-0.91
CC[C@H]1CN(C(=O)c2cccc(-c3cncc(C(C)(C)O)c3)c2)CCN1,2%,-0.31
Fc1cc2ncnc(N3CCC[C@H]3c3nc4cc(Cl)ccc4[nH]3)c2cc1F,-4%,0.9
O=S(=O)(Nc1ccc(Nc2cc(-n3cccn3)ncn2)cc1)c1cccnc1,2%,-0.26
O=C(NC1CCc2ncnn2C1)N1CC[C@@H](Oc2ccncc2)C1 (stereo partly drawn),-9%,1.52
Nc1nc2c(c(N3CCC(O)(c4cccnc4)CC3)n1)CCNCC2,8%,-1.42
CN(Cc1nccc(N)n1)[C@H]1CCCN(Cc2cccc3[nH]ccc23)CC1,-5%,1.12
CN1CCN(c2ccc(NCc3cc(C#N)cs3)cn2)CC1,-7%,1.29
COc1ccc(-c2c(-c3ccccc3)ncn2C[C@H](O)c2cccnc2)c(F)c1,12%,-2.14
Cn1ccc2cc(CN3CCC(Oc4ccncc4)CC3)ccc21,6%,-1.37
CN1CCCCC1CN1CCN(C(=O)c2cnn(C3CCCNC3)c2)CC1 (stereo not drawn),0%,0.01
Cc1cc(C)c2nccc(N3CC(CO)C(CN4CCC(CO)CC4)C3)c2c1 (stereo not drawn),3%,-0.46
OC1CCN(c2cc(N3CCCN(C4CCCC4)CC3)ncn2)CC1,-10%,1.67
CCN(CCN1CCOCC1)Cc1cnc(-c2ccco2)nc1,-3%,0.59
c1ccc2c(CCNc3nc(N4CCCC4)c4nn[nH]c4n3)c[nH]c2c1,5%,-0.9
O=C(c1ccc(N2CCN[C@H](c3ccccc3)C2)nc1)N1CCCN(c2ncccn2)CC1,-3%,0.6
CN1CCN(CC2CCN(C(=O)c3cccc(-c4cncnc4)c3)CC2)CC1,-1%,0.12

Structure (SMILES),% Inhibition,Z score
CCOC(=O)c1cncc(-c2ccc(NCC3CCOCC3)nc2)c1,-3%,0.43
COc1ccc(C(=O)O)nc1-c1ccc(CN(C)C)cc1,2%,-0.47
COc1ccccc1CCC(=O)Oc1ccc(Cl)c2cccnc12,-11%,1.88
Cc1cc(C(=O)N[C@H]2CC[C@@H](CO)CC2)cc(NCC(F)(F)F)n1,-5%,0.69
O=C(c1cc2occc2[nH]1)N1CCC[C@H](CN2CCOCC2)C1,1%,-0.15
COc1ccccc1-c1ccc(-c2ccc(O)c(OC(F)(F)F)c2)nn1,10%,-2.07
CCN1CCC[C@@H]1CNC(=O)CCC1CCN(Cc2cc(O)c3ccccc3n2)CC1,2%,-0.31
CC(=CCNC(=O)OC(C)(C)C)C(=O)NC(C)(C)CCCN(C)C,-2%,0.38
O=C(NCc1nncn1C1CCCCC1)c1cncc(O)c1,-5%,0.96
Cc1cccc([C@@H](NC(=O)c2ccc(C#CC(C)(C)O)o2)C(=O)O)c1,-2%,0.35
c1cc(CN2CCN(CC3CCCC3)CC2)c2cccnc2c1,-1%,0.15
COCCN1CC[C@H](CN2CCN(c3ccncc3C)CC2)C1,11%,-1.86
CC(C)CNC(=O)c1cc(NC(=O)CCc2ccn(C)n2)ccc1Cl,-5%,0.83
Cc1cc(N2CCC(NCCCc3ncc[nH]3)CC2)nc(N2CCCC2)n1,-11%,1.85
Cc1ccc(-c2csc(-n3nc(C)cc3NC(=O)C(=O)c3c[nH]c4ccccc34)n2)cc1,-4%,0.6
O=C([C@@H]1CC[C@H](Nc2ccnc(N3CCOCC3)n2)C1)N1CCCC1,-4%,0.63
CC1CCCCN1CC1CCCN(CC2CCN(C(=O)OC(C)(C)C)C2)C1 (stereo not drawn),-5%,0.98
CN1CCC(CN2CCN(c3cc([C@H]4C[C@@H](O)C4)ncn3)CC2)CC1,-6%,0.92
COc1cc(Br)c2nc(N3CCN(C4CCCC4)CC3)nc(N)c2c1,1%,-0.22
Fc1ccc(Nc2cc(-c3ccccc3)ncn2)c(F)c1,6%,-0.97
COc1cc2ccc1Oc1cc(F)cc(c1)CNC(=O)CCCN(c1ccnc(N)n1)CCCNC2=O,8%,-1.47
